We go through 45 sequences from the supplement of paper PMC11417369.

± gives the standard deviation of the averaged measurements. Some of the results follow.

The test system of the test is PfAP2-EXP AP2 domain (GST-tagged). As to the kind of experiment: gcPBM binding intensity (ln(normalized median fluorescence intensity)); higher = stronger DNA binding. A digest of the protocol: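 After 1 h on an Agilent 4 × 180k array of primer-extended double-stranded 36-bp intergenic genomic probes and negative controls, bound GST-tagged P. falciparum DNA-binding domains were detected with Alexa488 anti-GST antibody and scanned at 488 nm. The domains had been expressed in E. coli, and binding took place in 1× PBS with 1% milk, 0.2 mg/ml BSA, 0.5% salmon testes DNA and 0.03% Triton X-100. Binding intensity is the highest Masliner-normalised natural-log median intensity across replicate spots of either probe orientation.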
Take “AATTAAATTACTTATACACACATAAAATGCCTGTAT [CACACA_site6597]”: the “gcPBM binding intensity (ln)” value is 8.37 ± 0.31.
“GTAAGTTGTGCATTCACACACATATAAATATAAATA [CACACA_site7536]”: the “gcPBM binding intensity (ln)” value worked out at 8.66 ± 0.24.
With “CATTATGTTGTAAATGCACACATACAAATACATATA [CACACA_site8380]” the figure was 8.59 ± 0.3.
On to “TTATGATATATTTGTTGTACGCTTTTTTTATGAACT [XGTACX_site573]”, for which the “gcPBM binding intensity (ln)” value was 8.99 ± 0.43.
As for “AACACATACATATATACACACACAAAATAATAAAAT [CACACA_site8724]”, the “gcPBM binding intensity (ln)” value was 8.72 ± 0.62.
In the case of “ATGACCCACTTTTCTGCACACATAAAAAATATATAA [CACACA_site8092]” it was 8.83 ± 0.35; in that of “TTTTTTCTATTGAGCACACATATCACGATTAGTACT [CACACA_site313]”, 8.59 ± 0.3; in that of “ATATATATTATTTCTACACACATATATATAATATGT [CACACA_site3374]”, 8.66 ± 0.42.
In the case of “GCTCAATTTTTGGGTACACACAAATGTATAATAATA [CACACA_site2388]” it was 8.58 ± 0.21; in that of “TTCTTTTTTCAACACACACACACAAGAAAATATATA [CACACA_site9019]”, 8.97 ± 0.47.
In the case of “CAAAGAGAAATAAACACACACAAAATAAAGAAAAAA [CACACA_site2245]” it was 8.77 ± 0.59; in that of “AAAAAAAAAAAAAAAACACACATATAGATTTATATA [CACACA_site7196]”, 8.4 ± 0.17.
Turning to “TGAACAGACAAATACACACACTCAAAAAAAAAAAAG [CACACA_site7287]”, the “gcPBM binding intensity (ln)” value amounted to 8.47 ± 0.53.
With “GCACTCGTAAAAAGCACACATATAAAAACATTTATA [CACACA_site322]” the figure was 8.45 ± 0.35; with “CAATGCTTTATCAATACATGCATATATATAGAAATA [TGCATGCA_site857]”, 8.68 ± 0.25; with “TATAATAATTCTTTGAGTACTTAAACATGTGAAATT [XGTACX_site955]”, 8.51 ± 0.45.
In the case of “GCGAGATGCTAAAATGCATGTTGGGCATTAGTTAAA [TGCATGCA_site586]” it was 8.7 ± 0.43; in that of “TATCATTTCTAAAAAGGTACACATACATCATATATT [XGTACX_site3386]”, 8.91 ± 0.28.
With “ATATTAATATATGTGGCACACATGTGGAGTCCTATT [CACACA_site213]” the figure was 8.96 ± 0.45; with “AAAAAAATGAAGAAATGTACAAATTTCATTAATTTT [XGTACX_site354]”, 8.29 ± 0.43.
With “GTGTAGTAAAATCGATGTACGTACAAATCAATTATT [XGTACX_site7662]”, the “gcPBM binding intensity (ln)” value was 8.69 ± 0.29.
For the sequence “TATATATGTAAATGCACACATATGTGGATATACTTA [CACACA_site1699]”, the “gcPBM binding intensity (ln)” value amounted to 8.78 ± 0.099.
As for “TTATATGTTTTACAACGTACACAAAAAAAACTTATA [XGTACX_site4413]”, the “gcPBM binding intensity (ln)” value came out at 8.34 ± 0.13.
Take “CATTTTTACCGGTACTGTACATAAAAAAAAAAAAAG [XGTACX_site1548]”: the “gcPBM binding intensity (ln)” value was determined as 8.88 ± 0.46.
In the case of “TAAAAAAAAAGAAGGGGTACATGGATAATATATAAA [XGTACX_site8386]” it was 8.9 ± 0.5; in that of “TATATAATATTTTTCACACACCATTTCCTTAAACAC [CACACA_site4862]”, 8.66 ± 0.45; in that of “GCAGGCTAAAAAATTACACACGAAAAAAATGAATTT [CACACA_site3417]”, 8.44 ± 0.45.
With “CATATATGGTTATATACATGCACCATTATATTATTA [TGCATGCA_site520]” the figure was 8.71 ± 0.099.
With “TGTATAACCTGTGTTACACACATTATGATTTATATA [CACACA_site525]” the figure was 8.48 ± 0.21; with “TGATAAAGTAAATATACATGCGATTAGTTATATATA [TGCATGCA_site720]”, 8.55 ± 0.39.
“TAATTAATAATAATATGTACATATTAATATATTATT [XGTACX_site6900]”: the “gcPBM binding intensity (ln)” value was found to be 8.29 ± 0.24.
In the case of “TTTTATATATATATCACACACACACCCATGTTTTAA [CACACA_site79]” it was 8.71 ± 0.54.
Turning to “TTTATTCTCAAACACACACACATATATATATATATA [CACACA_site2895]”, the “gcPBM binding intensity (ln)” value was 10.2 ± 0.51.
In the case of “TATAAAAAAAAAAAAAGTACTAACTTAAAACAATTT [XGTACX_site7969]” it was 8.35 ± 0.35.
In the case of “TTGATAATTATATAATGTACTCATTATAATATGATG [XGTACX_site7813]” it was 8.32 ± 0.16.
With “AGTTTGTCAATCAACACACACCTATTTATTATAGAT [CACACA_site7777]” the figure was 8.37 ± 0.42; with “TATTTATTCTCCAACACACACACATATATTTATATA [CACACA_site7376]”, 8.69 ± 0.53.
In the case of “AAAAATGAGTGACACACACACATATAAATATAAATA [CACACA_site7115]”, the “gcPBM binding intensity (ln)” value turned out to be 8.39 ± 0.49.
In the case of “AAATCAAACTTTGGTGTGCACAAATATATACATATA [GTGCAC_site9986]” it was 9.1 ± 0.29.
In the case of “TTTTTTTTACATTCTGCACACAATTTATTTTTTTTT [CACACA_site36]”, the “gcPBM binding intensity (ln)” value was found to be 8.88 ± 0.38.
On to ACATATAAATATTGTGTGCACACACATAATATATAT, for which the “gcPBM binding intensity (ln)” value was found to be 8.68 ± 0.16.
With “GTAATTTTAAAGAAAAGTACACATTTATTAATTATT [XGTACX_site4468]” the figure was 8.21 ± 0.3; with “TTGCATTTATTATACACACACAAAAAAATATATATA [CACACA_site238]”, 8.72 ± 0.3; with “AAAAATTATAACTAAAAAAATCACACAAAATATTTT [TGCATGCA_negctrl_site28]”, 8.38 ± 0.37.
In the case of “GTGTTAAATGTTTACACACAAACTTGCAATAATTAT [CACACA_site3825]”, the “gcPBM binding intensity (ln)” value came out at 8.62 ± 0.44.
